ChEMBL document CHEMBL1201862, “PubChem BioAssay data set” (2004)
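A five-concentration, 48-hour dose response in 96-well plates underlies each endpoint, interpolated linearly between surrounding concentrations. At the GI50, growth is halved.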 Calls of active or inactive are those of the source. No stated cut-off is given here; in the data, active = GI50 up to about 1.1 µM and inactive = higher. Peptide text beside a SMILES is read from it.

Each compound was assayed on NCI-H322M (assay: NCI-60 cell line screen, 48 h).

| Compound | GI50 |
| --- | --- |
| O=C(/C=C1\Nc2ccccc2N\C1=C/C(=O)c1ccc(F)cc1)c1ccc(F)cc1 | inactive: > 100 µM |
| O=C(c1ccc(Cl)cc1Cl)N(/N=C/C=C/c1ccccc1)c1nnc(-c2ccccc2)c(-c2ccccc2)n1 | inactive: > 100 µM |
| N#CC(C(=O)C(=O)Nc1ccc(Cl)cc1)c1ccccc1 (stereo not given) | inactive: > 100 µM |
| O=c1nc2sc3ccc4ccccc4c3n2nc1-c1ccccc1 | inactive: 34.3 µM |
| Clc1cc(-c2ccccc2)nc(Nc2nc3ccccc3[nH]2)n1 | inactive: 73.8 µM |
| C=C(C)C1CC2=C(C(=O)OC)C=C(O2)C(C(=C)C)[C@@H]2OC(=O)/C(=C\C1O)[C@H]2N(C)C (stereo not given in full) | inactive: 28.9 µM |
| CC1=C(C(=O)Nc2ccccc2C)C(c2ccc([N+](=O)[O-])cc2)C(C(=O)Nc2ccccc2C)=C(C)N1 | inactive: 82.8 µM |
| CCC(C)C1NC(=O)C(NC(=O)C(CC(C)C)N(C)C(=O)[C@@H]2CC(O)CN2C(=O)[C@H](C)O)C(C)OC(=O)[C@H](Cc2ccc(OC)cc2)N(C)C(=O)[C@@H]2CCCN2C(=O)[C@H](CC(C)C)NC(=O)C(C)C(=O)[C@H](C(C)C)OC(=O)CC1O (stereo not given in full) | active: 0.179 µM |
| Nc1ccccc1C(=O)CC1OC(=O)c2ccccc21 (stereo not given) | inactive: 41.1 µM |
| CCC(C)C(NC(=O)C(CCCCN)NC(=O)C(NC(=O)C(CCC(N)=O)NC(=O)C(N)CCCNC(=N)N)C(C)CC)C(=O)NC(Cc1c[nH]c2ccccc12)C(=O)NC(Cc1ccccc1)C(=O)NC(CCC(N)=O)C(=O)NC(CC(N)=O)C(=O)NC(CCCNC(=N)N)C(=O)NC(CCCNC(=N)N)C(=O)NC(CCSC)C(=O)NC(CCCCN)C(=O)NC(Cc1c[nH]c2ccccc12)C(=O)NC(CCCCN)C(=O)NC(CCCCN)C(=O)N1CCCC1C(=O)NC(C)C(=O)NC(CCCCN)C(=O)NC(CCCNC(=N)N)C(=O)NC(CCCCN)C(=O)NC(CC(C)C)C(=O)NC(Cc1ccccc1)C(=O)NCC(=O)O (stereo not given) (H-RQIKIWFQNRRMKWKKPAKRKLFG-OH; configuration not given here) | inactive: > 25 µM |
| CN[C@@H](C)[C@H](NC)c1ccccc1 | inactive: > 100 µM |
| c1cncc(CNCc2cccnc2)c1 | inactive: > 100 µM |
| CC(=O)O[C@H]1CCC2[C@@H]3CCC4NC(=O)C(C#N)C[C@]4(C)C3CC[C@@]21C (stereo not given in full) | inactive: > 10 µM |
| Cc1ccc(-c2c(-c3ccccc3)[nH]c(C)c2C(=O)ONC(=O)c2ccccc2)cc1 | inactive: 11.4 µM |
| Cc1cccc(N2C(=O)C3c4[nH]c5ccccc5c4C4CCC(C(C)(C)C)CC4C3C2=O)c1 (stereo not given) | inactive: 12.4 µM |
| C[C@@H]1OC2(O)[C@H]3CCCN3S(=O)(=O)CCN2C1=O (stereo not given in full) | inactive: > 100 µM |
| Cn1ncc2c(Nc3ccc(Cl)cc3)c3ccccc3nc21 | inactive: 17.5 µM |
| NC1=NC(c2ccccc2)CC(c2cc(Cl)ccc2O)=N1 (stereo not given) | inactive: 20 µM |
| ON/N=C/c1cc2c(cc1Br)OCO2 | inactive: > 386 µM |
| N[C@H](Cc1ccc2oc3cc(=O)c4ccccc4c-3nc2c1)C(=O)O | inactive: 27.4 µM |
| O=c1c(C(c2ccc(-c3ccccc3)cc2)c2c(O)oc3ccccc3c2=O)c(O)oc2ccccc12 | inactive: 30.4 µM |
| O=P1(O)c2ccccc2Nc2cc(C(F)(F)F)ccc21 | inactive: > 100 µM |

| Compound | GI50 |
| --- | --- |
| C/C(=N\NC(N)=S)c1ccccn1.OB(O)c1ccccc1 | inactive: 10 µM |
| O=C1c2ccccc2C(=O)C1(Cl)C1(S(=O)(=O)O)c2ccccc2-c2ccccc21 | inactive: > 100 µM |
| CC(=O)OC12C3C4C1C1C2C3C41OC(C)=O (stereo not given) | inactive: > 100 µM |
| NCc1ccccc1-c1c2nc(c(-c3ccccc3CN)c3ccc([nH]3)c(-c3ccccc3CN)c3nc(c(-c4ccccc4CN)c4ccc1[nH]4)C=C3)C=C2 | inactive: 16.1 µM |
| O=C1CC2SC(COCc3ccccc3)(CCN2Cc2ccccc2)C1 (stereo not given) | inactive: 47.2 µM |
| Cn1cc2c(=O)n3ncn(-c4ccc(Br)cc4)c3nc2n1 | inactive: > 100 µM |
| COC(=O)c1ccc(OCc2ccc3nc(-c4ccccc4)c(Cl)nc3c2)cc1 | inactive: > 100 µM |
| [N-]=[N+]=NC1=C(c2ccccn2)C(=O)c2cccc3cccc1c23 | inactive: 65.3 µM |
| C=C1C(=O)O[C@@H]2C[C@]3(C)[C@@H](C[C@H]12)[C@](C)(O)CC[C@@H]3O | inactive: 94.6 µM |
| CN(CCN)[C@H](CSSC[C@@H](c1ccccc1O)N(C)CCN)c1ccccc1O | inactive: 10.7 µM |
| Cc1c2n(c3ccccc13)S(=O)(=O)c1ccccc1-2 | inactive: 23.1 µM |
| CO[C@@]12C[C@@H](C)[C@]34O[C@H]3C[C@]3(C)O[C@]43CC1=C(C)C(=O)O2 | inactive: > 100 µM |
| CN1Cc2c(nc(-c3ccc(Br)cc3)c[n+]2[O-])N(C)C1 | inactive: > 100 µM |
| COc1ccccc1OC(=O)/C=C/c1ccccc1 | inactive: > 100 µM |
| O=C(CC(Cl)(Cl)C(Cl)(Cl)Cl)c1ccccc1 | inactive: 13 µM |
| O=[N+]([O-])c1ccc(CSc2nncc3[nH]cnc23)cc1 | inactive: > 100 µM |
| CC(=O)Nc1ccc(CNc2cc(=O)n(C)c(=O)[nH]2)cc1 | inactive: > 100 µM |
| CC(C)(C)[Si](OC1CCOC1=O)(c1ccccc1)c1ccccc1 (stereo not given) | inactive: 38.7 µM |
| C[C@H]1CC(=O)C[C@@H]2CC[C@@H]3[C@H](CC[C@]4(C)C(OC(=O)c5cccc6c(=O)c7ccccc7[nH]c56)CC[C@@H]34)[C@]21C (stereo not given in full) | inactive: 58.2 µM |
| CC1(C)CCC[C@@]2(C)C1CCC1(C)C(CCc3ccoc3)/C(=C/OS(=O)(=O)O)CCC12 (stereo not given in full) | inactive: > 100 µM |
| N[C@H](C(=O)O)[C@@H](Cl)CC(=O)O | inactive: > 100 µM |
| O=C(O/N=C1\CCCC\C1=C/c1ccccc1)c1ccc([N+](=O)[O-])cc1 | inactive: > 100 µM |

| Compound | GI50 |
| --- | --- |
| CC1OC(c2ccccc2)=CC(OCc2ccccc2)[C@H]1OCc1ccccc1 (stereo not given in full) | inactive: > 10 µM |
| CCOc1cc2c(cc1O)/C(=N\OC)C[C@@H]1[C@@H]2CC[C@]2(C)[C@@H](O)CC[C@@H]12 | active: 0.441 µM |
| CN(C)/N=N/c1[nH]cnc1C(N)=O [DACARBAZINE] | inactive: 95.3 µM |
| C[C@]1(O)CC(=O)c2c(c(-c3ccc4cc5c(c(O)c4c3O)C(=O)C[C@@](C)(O)C5)c3cccc(O)c3c2O)C1 | inactive: 10.4 µM |
| C/C=C\C1OC1(C)c1cc(=O)c2c(C)cc3c(c2o1)C(=O)c1c(O)c(C2CC(C)(N(C)C)C(OC(C)=O)C(C)O2)cc(C2CC(N(C)C)C(O)C(C)O2)c1C3=O (stereo not given) | active: 0.00629 µM |
| C[C@@H]1OC(=O)C[C@H]2CC(=O)N(CCc3cn(S(=O)(=O)C(F)(F)F)c4ccccc34)C[C@@H]21 | inactive: > 100 µM |
| O=C(NC(Cc1c[nH]c2ccccc12)C(=O)Nc1ccc(Br)cc1)OCc1ccccc1 (stereo not given) | inactive: 16 µM |
| CCN(CC)CCCNc1ncc(C)c2c1c1ccc3c(O)cccc3c1n2C | inactive: 1.44 µM |
| CSC1=C(C#N)C(=S)N=C(N)C1C(=O)Nc1ccc(C)cc1 (stereo not given) | inactive: > 100 µM |
| C/C(O[Si](C(C)C)(C(C)C)C(C)C)=C(\C)C(=O)N(C)c1ccccc1Cl | inactive: > 100 µM |
| O=C(CCN1CCOCC1)Nc1ccc2sc3ccccc3c(=O)c2n1 | inactive: 53.5 µM |
| CN(c1ccccc1Cl)S(=O)(=O)c1ccccc1 | inactive: > 100 µM |
| Clc1cc2n[se]nc2cc1Cl | inactive: > 100 µM |
| CCC(CCCC[C@H]1CC[C@@H]2CC(=O)C[C@H]12)OC (stereo not given in full) | inactive: > 100 µM |
| O=C1OCC/C1=N/O | inactive: > 100 µM |
| CC/C(Cl)=N\OC(=O)Nc1ccc(OC)cc1 | inactive: 16.7 µM |
| Cc1ccc(SCC(=O)C2=C(O)CCCC2=O)cc1 | inactive: > 100 µM |
| O=S(=O)(O)c1ccc(/N=N/c2ccc(/N=N/c3c(O)ccc4cc(S(=O)(=O)O)ccc34)cc2)cc1 | inactive: > 100 µM |
| Cc1ccccc1C(C#N)/C(=N/NC(=O)c1cc2ccccc2cc1O)C(=O)Nc1cccc(Cl)c1 (stereo not given) | inactive: 20 µM |
| CSCCC(C(=O)O)N(C)C (stereo not given) | inactive: > 100 µM |
| CCCCCCCCCCCCCCCC(=O)OCCOCCOCCOCCOCCOC(=O)CCCCCCCCCCCCCCC | inactive: > 100 µM |
| COc1ccccc1C1(C)SCc2nc3ccccc3n21 (stereo not given) | inactive: > 10 µM |

| Compound | GI50 |
| --- | --- |
| COc1ccc(N2C(=O)CSC2c2c[nH]c3ccccc23)cc1 (stereo not given) | inactive: 87.5 µM |
| Cc1nc(Nc2nnc(-c3cc([N+](=O)[O-])cc([N+](=O)[O-])c3C)o2)sc1C(=O)CC(=O)Cc1nc2ccc(Cl)cc2nc1O | inactive: > 100 µM |
| CN(C)CCCSc1nc2c(c(=N)n1-c1ccccc1)c(=S)n(-c1ccccc1)c(=S)n2-c1ccccc1 | inactive: 1.93 µM |
| O=C1c2ccccc2C(=O)c2c(NCCCNCCO)ccc(NCCCNCCO)c21 | inactive: 6.67 µM |
| C/C(=N\NC(=S)Nc1ccc(C)cc1)c1nc2cccnc2[nH]1 | inactive: 3.66 µM |
| Cc1ccc(S(=O)(=O)NC2=NS(=O)(=O)c3cc(C)c(Cl)cc3S2)cc1 | inactive: 46.6 µM |
| CC(=O)NC(C)(C)C1CC=C(C)CC1 (stereo not given) | inactive: > 100 µM |
| O=C1c2ccccc2-c2nc(-c3cccnc3)cc3c2c1nc1ccccc13 | inactive: > 100 µM |
| O=C(O)c1ccc(O)c(/N=N/c2cc(S(=O)(=O)O)c3ccccc3c2O)c1 | inactive: > 100 µM |
| O=C1C(CO)=C[C@@H](O)[C@H]2O[C@@H]12 [EPOXYDON] | inactive: > 100 µM |
| CCCCCCNC(=O)c1cc(CCc2cc(O)ccc2O)ccc1O | inactive: 9.84 µM |
| O=S(=O)(O)C(c1ccccc1)C(O)c1ccccc1 (stereo not given) | inactive: > 100 µM |
| COc1ccc(S(=O)(=O)N2C(=O)CCC2C(=O)NC(N)=O)cc1 (stereo not given) | inactive: > 100 µM |
| O=c1c2ccc(Cl)cc2oc2c(CSc3ccccc3)cccc12 | inactive: > 85.3 µM |
| O=C(c1c(F)c(F)c(F)c(F)c1F)n1c(O)nc2ccccc21 | inactive: 15.3 µM |
| CCCCCCCCCCCCC/C=C/[C@H]1[C@@H](C(=O)OC)N1[S+]([O-])c1ccc(C)cc1 (stereo not given in full) | inactive: > 100 µM |
| O=c1c(C(c2cccnc2)c2c(O)oc3cc(O)ccc3c2=O)c(O)oc2cc(O)ccc12 | inactive: > 100 µM |
| CC(C)(/C=N/O)/[N+]([O-])=C/c1ccccc1 | inactive: > 100 µM |
| NCCCNCCCCN1CCOC1=O | inactive: > 100 µM |
